In all, about 33,000 sequences were measured (“E-score (-0.5 to 0.5)”: median about -0.053, highest 2% from about 0.37 on). The list shows a part of the results.
Each sequence was assayed against Hap1 (UniProt P0CE41) (assay: PBM E-score (8-mer binding enrichment) (E-score (-0.5 to 0.5)); higher = stronger / more preferred TF binding; most listed sequences are background and not binding sites). Conditions: protein concentration: 200 nM; construct: GST-DNA-binding domain.
Experimental: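 Universal 'all 10-mer' protein binding microarrays (Agilent AMADID 015681) probed with GST-tagged S. cerevisiae TFs (full-length or DBD) made by in vitro transcription/translation (PURExpress), about 100-200 nM. Bound TF was detected with fluorescent anti-GST. Each ungapped 8-mer (which stands for itself and its reverse complement) is scored by the PBM enrichment score (E-score), a modified Wilcoxon-Mann-Whitney statistic from -0.5 to +0.5, computed with the Universal PBM Analysis Suite. Scale: above 0.35 generally sequence-specific binding.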

UniProt P0CE41, sequence (P0CE41 whole entry, the tested form may be a part): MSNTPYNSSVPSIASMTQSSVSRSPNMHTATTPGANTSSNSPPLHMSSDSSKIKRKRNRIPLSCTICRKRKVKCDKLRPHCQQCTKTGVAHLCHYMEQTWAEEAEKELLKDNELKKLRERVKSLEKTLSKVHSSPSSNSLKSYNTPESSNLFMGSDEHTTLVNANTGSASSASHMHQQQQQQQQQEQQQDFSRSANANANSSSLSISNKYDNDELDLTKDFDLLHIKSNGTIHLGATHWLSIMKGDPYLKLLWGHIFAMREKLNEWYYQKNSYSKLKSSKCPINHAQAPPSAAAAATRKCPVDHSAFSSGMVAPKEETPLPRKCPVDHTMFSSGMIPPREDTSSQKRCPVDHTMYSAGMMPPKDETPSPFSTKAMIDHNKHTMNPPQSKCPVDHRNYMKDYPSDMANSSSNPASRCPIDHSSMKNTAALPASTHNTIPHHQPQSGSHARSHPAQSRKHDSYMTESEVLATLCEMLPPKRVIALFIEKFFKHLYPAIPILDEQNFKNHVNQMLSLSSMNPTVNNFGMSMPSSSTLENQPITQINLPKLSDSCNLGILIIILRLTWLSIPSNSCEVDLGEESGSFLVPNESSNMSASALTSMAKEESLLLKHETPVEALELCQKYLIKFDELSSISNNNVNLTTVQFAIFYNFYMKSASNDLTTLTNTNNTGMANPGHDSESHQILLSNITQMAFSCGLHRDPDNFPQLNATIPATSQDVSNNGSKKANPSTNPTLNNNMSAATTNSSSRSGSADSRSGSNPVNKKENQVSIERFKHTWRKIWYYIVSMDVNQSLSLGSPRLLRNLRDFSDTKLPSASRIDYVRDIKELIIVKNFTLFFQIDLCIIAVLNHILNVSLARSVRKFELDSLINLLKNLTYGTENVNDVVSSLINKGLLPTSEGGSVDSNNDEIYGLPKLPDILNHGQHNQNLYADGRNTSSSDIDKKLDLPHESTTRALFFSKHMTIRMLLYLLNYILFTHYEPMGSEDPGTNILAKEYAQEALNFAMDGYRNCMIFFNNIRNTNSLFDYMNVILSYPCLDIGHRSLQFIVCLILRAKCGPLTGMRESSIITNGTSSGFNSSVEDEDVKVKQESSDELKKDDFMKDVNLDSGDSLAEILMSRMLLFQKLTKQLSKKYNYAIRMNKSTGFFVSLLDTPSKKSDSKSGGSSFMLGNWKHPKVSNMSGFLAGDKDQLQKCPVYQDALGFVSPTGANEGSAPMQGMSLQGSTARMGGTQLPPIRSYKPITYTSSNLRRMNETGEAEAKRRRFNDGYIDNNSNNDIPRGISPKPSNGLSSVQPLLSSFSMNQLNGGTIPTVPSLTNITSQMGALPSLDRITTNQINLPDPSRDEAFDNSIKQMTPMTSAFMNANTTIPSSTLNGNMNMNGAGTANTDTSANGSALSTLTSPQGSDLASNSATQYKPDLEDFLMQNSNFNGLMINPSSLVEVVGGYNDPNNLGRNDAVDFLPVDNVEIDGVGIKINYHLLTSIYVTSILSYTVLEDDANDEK

Row | Sequence | PBM E-score
1 | AGAGACCG | 0.0963
2 | GCCCAATA | 0.0755
3 | ATTGTCAC | -0.0894
4 | CCTAACCA | -0.173
5 | GGGTAGCA | 0.0223
6 | TCACCAGA | -0.189
7 | CCCCGCTA | 0.344
8 | GGTCGTTA | -0.00692
9 | GTGCCACA | -0.336
10 | AAAGGTCA | -0.194
11 | ATGTTGCA | -0.266
12 | GGGACGAC | -0.117
13 | TACCATAA | -0.0311
14 | AGCGACGA | -0.16
15 | TACAATAA | -0.144
16 | AGAAAAGC | -0.0527
17 | GACGAGAA | -0.0307
18 | GGCGCACA | 0.0367
19 | CGTAAAGC | -0.0471
20 | TAATATCA | -0.0611
21 | TTGGGAAA | -0.142
22 | CTCATCCA | -0.294
23 | ATCTTACA | -0.126
24 | CCCGGTAG | 0.336
25 | ACCGAGCC | 0.277

Row | Sequence | PBM E-score
26 | TACTAGGA | -0.103
27 | CCAATCGG | 0.208
28 | AGGACACT | -0.148
29 | CCAAGAAG | -0.228
30 | CCGCATAA | 0.331
31 | AAATCTTA | -0.214
32 | CTTTCGTC | 0.00964
33 | CGGCACTA | 0.368
34 | ACTATTCG | -0.0974
35 | CTGACATA | -0.229
36 | ACAGTAGC | -0.116
37 | GATTGCAA | -0.0227
38 | AGATGCGC | -0.0857
39 | ACTATAAC | 0.0195
40 | CGAACTAC | 0.127
41 | CTGAGAGC | -0.0186
42 | AGAGGTCC | 0.104
43 | GCCGACGA | 0.202
44 | ACGTAGAC | -0.353
45 | CGATTCGC | 0.133
46 | CGACTATC | 0.0793
47 | ATAGAAAT | 0.0331
48 | ATCCCCAA | -0.165
49 | CAAGTCTA | -0.201
50 | TAGGGCGA | -0.203

Row | Sequence | PBM E-score
51 | TAATGAGA | -0.164
52 | CCTGGTCC | 0.138
53 | AATCTGAC | -0.206
54 | AGTGATTA | 0.113
55 | CCCTCCGA | 0.253
56 | GGCTCTCA | -0.124
57 | CATACTTA | -0.231
58 | ACTCGGTA | 0.113
59 | AAGATCAG | -0.214
60 | TAGCCCTA | -0.22
61 | CCTATTCG | 0.085
62 | CTCTGATA | -0.087
63 | CGCGCAGC | 0.0272
64 | GAGCACGC | -0.0883
65 | AAAGTCGA | -0.171
66 | AACACGCT | 0.0544
67 | AATCATAC | 0.00642
68 | ACCGTCTA | -0.00308
69 | CTGTGTCC | -0.0361
70 | ACTCTAGC | -0.208
71 | CTTTTCTC | -0.094
72 | GCTCACAA | -0.11
73 | ATATATAT | 0.25
74 | ATATCAAC | 0.0205
75 | CGTCCAAC | -0.267

Row | Sequence | PBM E-score
76 | ACCGCGTG | 0.0442
77 | CTAGGCTC | -0.155
78 | AAGACACA | -0.238
79 | GTCCCGAA | 0.111
80 | CAGCATGA | -0.201
81 | AAATATCT | 0.0958
82 | ACCGGGTA | 0.287
83 | CGATGTCA | -0.0608
84 | AACGCTAG | -0.162
85 | CCATCATC | -0.16
86 | ACGTCTCT | -0.0771
87 | AGAACGAG | -0.122
88 | TCCAGGCA | -0.132
89 | CTTACGGC | 0.333
90 | AAACCGGA | 0.328
91 | CCGTCCTC | 0.134
92 | AACCTTTA | -0.0305
93 | GCTTTGCA | -0.136
94 | CTGGCGCA | -0.28
95 | AACACCCC | -0.00343
96 | CCAAGTAA | -0.178
97 | GTGCCCAC | -0.263
98 | CTTTTAGA | -0.0131
99 | AGAGTTAT | -0.126
100 | GACGAGTA | -0.0242

Row | Sequence | PBM E-score
101 | GACACAGC | -0.146
102 | CCCCCGCC | 0.158
103 | ACTTACGA | -0.0152
104 | AGGGTGGA | -0.0754
105 | ATAGTATG | 0.0539
106 | ATAACCTC | -0.0153
107 | CAGTGTAG | -0.22
108 | CACCCGCC | 0.257
109 | GGAACTAC | 0.133
110 | CGGGAAGC | 0.0962
111 | GAAAAACA | -0.109
112 | CCCTGGCA | 0.0908
113 | TAGGAGGA | -0.249
114 | ACCTCAAA | -0.0183
115 | GAAGCTCC | 0.329
116 | CCCAAGCA | -0.18
117 | CATACAGC | -0.0521
118 | GCTCCAGC | -0.0411
119 | GCCACGGC | 0.073
120 | AGTCGTAA | 0.00615
121 | GGGAGCAA | 0.0117
122 | GGCACGGA | 0.175
123 | CCTCTCTA | -0.251
124 | CTCTTGTA | -0.0937
125 | AAAACCAC | -0.0546

Row | Sequence | PBM E-score
126 | GCGCGTGA | 0.114
127 | GGGTACAC | -0.0172
128 | CTCCATAC | -0.0699
129 | ACACTAGG | -0.195
130 | GACGCTTA | -0.242
131 | CACAAAGA | -0.169
132 | GGCTTCGA | -0.0926
133 | GATTCCAC | 0.119
134 | AGGACCAC | -0.168
135 | ACGTAGAT | -0.0926
136 | GTCCTTTA | 0.146
137 | ACCTCGTC | 0.106
138 | GGCGGGAC | 0.0644
139 | CGCGCCAG | 0.0862
140 | GTGCCTCA | -0.158
141 | GGTGGAAA | 0.127
142 | GGATAATA | 0.197
143 | AAAGATTC | -0.184
144 | AAGGTGAC | -0.168
145 | GTCGCAAC | -0.0641
146 | CTAACATA | -0.109
147 | CACGCGGC | 0.0696
148 | ATGAGCTC | -0.0597
149 | CAATACTC | -0.0914
150 | CGATGGGC | -0.0123

Row | Sequence | PBM E-score
151 | CTCTGTTC | -0.204
152 | CTAGAAAA | -0.0898
153 | GGTAAAAA | 0.0109
154 | GCTAAAGA | 0.0961
155 | TATCCAAA | -0.218
156 | TCTGATAA | -0.18
157 | AAGGACAC | -0.0581
158 | ACTGTCGC | 0.019
159 | ACGGCTAT | 0.106
160 | AAAATTGG | -0.122
161 | GGGCTCGA | -0.197
162 | CCGTTGTC | 0.272
163 | GAATTAAC | 0.0565
164 | CAGTAGAC | -0.143
165 | GGTGGTTA | 0.0739
166 | CTGGTTGC | 0.11
167 | AACACAGA | -0.116
168 | CACGGCGC | 0.141
169 | CATCCTAC | -0.129
170 | AGCCACTG | -0.0795
171 | GAATCTAA | 0.0164
172 | AGCTGGCC | 0.0874

From the supplement of paper PMC3334620
